{"source": "PubChem BioAssay (NCATS)", "key": {"[1]": {"assay": "Cell Viability - Hek293 (AID 427;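 active = compounds whose dose-response curve shows a full or clear partial loss of cell viability, called from curve shape rather than a numeric limit; inconclusive = weak partial curves or an effect only at the top dose; inactive = no dose-dependent loss of viability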; also: potency is read from the fitted curve at half-maximal effect)", "details": "qHTS", "how_it_was_run": "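HEK293 cells in complete medium were exposed to compound for 40 hr at 37 °C, then cellular ATP was read by CellTiter-Glo luminescence. Data were normalized to DMSO (basal) and 100 uM tamoxifen (100% inhibition), and AC50 came from Hill fits.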"}, "[2]": {"assay": "Cell Viability - HepG2 (AID 433; calls by dose curve; also: potency is read from the fitted curve at half-maximal effect)", "details": "qHTS", "how_it_was_run": "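HepG2 hepatocellular carcinoma cells (1500/well) were treated with compounds for 40 h at 37 °C in complete medium; intracellular ATP was read by CellTiter-Glo luminescence. Data were normalized to DMSO and 100 uM tamoxifen, and AC50 came from Hill fits.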"}, "[3]": {"assay": "Cell Viability - MRC5 (AID 434; calls by dose curve; also: potency is read from the fitted curve at half-maximal effect)", "details": "MRC5 lung fibroblast viability, qHTS", "how_it_was_run": "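Decrease in intracellular ATP, quantified by luciferase light output, reflects compound toxicity toward MRC5 cells exposed for 40 hr in complete culture medium. Concentration-response curves, scaled between DMSO and 100 uM tamoxifen, gave AC50 values.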"}, "[4]": {"assay": "Cell Viability - SK-N-SH (AID 435; calls by dose curve; also: potency is read from the fitted curve at half-maximal effect)", "details": "SK-N-SH neuroblastoma cell viability qHTS", "how_it_was_run": "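SK-N-SH human neuroblastoma cells (1500/well) were exposed to compounds in complete medium for 40 h at 37 °C, and intracellular ATP was then measured by CellTiter-Glo luminescence. AC50 was taken from Hill fits, normalized to DMSO and 100 uM tamoxifen.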"}, "[5]": {"assay": "Cell Viability - H-4-II-E (AID 543); also: potency is read from the fitted curve at half-maximal effect; nearly all actives have a fitted effect of over 35% in size", "how_it_was_run": "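AC50 from Hill-modelled qHTS concentration-response curves. H-4-II-E rat hepatoma cells in complete medium, 40 hr exposure at 37 °C, viability by CellTiter-Glo ATP luminescence.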"}, "[6]": {"assay": "Cellular Toxicity (caspase-3) Jurkat (AID 655)", "details": "Jurkat caspase-3 activation, luminescence; caspase-3 activation: at 92.2 µM (top of the series), DMSO = 0%, tamoxifen = 100%", "how_it_was_run": "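Jurkat cells (5000/well) in complete medium were treated with compounds for 16 hr at 37 °C, then Caspase-Glo 3/7 luminescence was read after 20 min at room temperature. Data normalized to DMSO (basal) and 100 uM tamoxifen (100%); AC50 from Hill fit.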"}, "[7]": {"assay": "Cell Viability - LYMP2-001 (AID 921); also: potency is read from the fitted curve at half-maximal effect; nearly all actives have a fitted effect of over 70% in size", "details": "LYMP2-001 lymphoblastoid cell viability; activity change, negative = cytotoxic: at 92.2 µM (top of the series)", "how_it_was_run": "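Human lymphoblastoid cells (Coriell), 2500 per well, were preincubated 5 hr at 37 C, then exposed to compounds in complete medium for 24 hr at 37 C. Cellular ATP was read by CellTiter-Glo luminescence; AC50 from Hill fits of concentration-response data.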"}, "[8]": {"assay": "MultiTox-Fluor Cytotoxicity Assay - LYMP1-001 - Dead Cells (AID 946); also: potency is read from the fitted curve at half-maximal effect", "details": "LYMP1-001 lymphoblastoid cells, dead-cell protease fluorescence; cytotoxicity (dead cells): at 92.2 µM (top of the series)", "how_it_was_run": "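LYMP1-001 lymphoblastoid cells (2500/well) treated 16 h at 37 C. Dead-cell protease cleavage of bis-AAF-R110 read at Ex/Em 485/520. Normalized to DMSO and 15 uM tetraoctylammonium bromide; AC50 from Hill fits.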"}, "[9]": {"assay": "MultiTox-Fluor Cytotoxicity Assay - LYMP1-002 - Dead Cells (AID 960); also: potency is read from the fitted curve at half-maximal effect; nearly all actives have a fitted effect of over 60% in size", "details": "LYMP1-002 lymphoblastoid cells, dead-cell protease fluorescence; cytotoxicity (dead cells): at 46.1 µM (top of the series)", "how_it_was_run": "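Concentration-dependent increases in membrane-leaked protease activity are quantified in LYMP1-002 cells after 16 hr treatment; values are normalized against DMSO and tetraoctylammonium bromide (15 uM) controls and AC50 derived by Hill modeling.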"}, "[10]": {"assay": "MultiTox-Fluor Cytotoxicity Assay - LYMP1-003 - Dead Cells (AID 961); also: potency is read from the fitted curve at half-maximal effect; nearly all actives have a fitted effect of over 70% in size", "how_it_was_run": "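LYMP1-003 human lymphoblastoid cells (2500/well) exposed to compound 16 h at 37 C in complete medium; dead-cell protease read with bis-AAF-R110 fluorescence (Ex/Em 485/520) after 60 min at room temperature. Normalized to DMSO and 15 uM tetraoctylammonium bromide; AC50 from Hill fit.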"}, "[11]": {"assay": "Cell Viability - LYMP2-004 (AID 966); also: potency is read from the fitted curve at half-maximal effect; nearly all actives have a fitted effect of over 65% in size", "details": "LYMP2-004 lymphoblastoid cell viability, qHTS; activity change, negative = cytotoxicity: at 92.2 µM (top of the series)", "how_it_was_run": "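Viable-cell number estimated from ATP luminescence (CellTiter-Glo) in 2500 human lymphoblastoid cells/well after 24 hr at 37 C with compound. AC50 fitted to the standard Hill equation.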"}, "[12]": {"assay": "Cell Viability - LYMP2-005 (AID 967); also: potency is read from the fitted curve at half-maximal effect", "how_it_was_run": "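CellTiter-Glo luminescence (cellular ATP) read-out; LYMP2-005 lymphoblastoid cells, 2500/well, 5 h pre-incubation, then 24 h compound exposure at 37 C in complete medium. Tetraoctylammonium bromide positive control; AC50 by standard Hill fit.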"}, "[13]": {"assay": "Cell Viability - LYMP2-009 (AID 968); also: potency is read from the fitted curve at half-maximal effect; nearly all actives have a fitted effect of over 55% in size"}, "[14]": {"assay": "Cell Viability - LYMP2-011 (AID 969); also: potency is read from the fitted curve at half-maximal effect; nearly all actives have a fitted effect of over 60% in size", "details": "LYMP2-011 lymphoblastoid cells viability; viability change, negative = cytotoxic: at 92.2 µM (top of the series)", "how_it_was_run": "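Cells seeded at 2500 per well rest 5 hr before compound addition, then incubate 24 hr at 37 C. CellTiter-Glo reagent is added for 30 min at room temperature before luminescence detection.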"}, "[15]": {"assay": "Cell Viability - LYMP2-013 (AID 970); also: potency is read from the fitted curve at half-maximal effect; nearly all actives have a fitted effect of over 55% in size", "details": "LYMP2-013 lymphoblastoid cells viability; activity change, negative = cytotoxic: at 92.2 µM (top of the series)", "how_it_was_run": "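In complete culture medium, human lymphoblastoid cells were dosed for 24 hr at 37 C, with tetraoctylammonium bromide (6.4pM to 92 uM) as positive control. Viability reflects luciferase-based ATP signal; AC50 derived from concentration-response curves.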"}, "[16]": {"assay": "Cell Viability - LYMP2-019 (AID 973); also: potency is read from the fitted curve at half-maximal effect; nearly all actives have a fitted effect of over 55% in size", "how_it_was_run": "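AC50 values come from Hill-equation modelling of qHTS concentration-response curves, where viability is measured as luciferase-based ATP luminescence in the lymphoblastoid line after 24 hr compound exposure in complete culture medium.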"}, "[17]": {"assay": "Cell Viability - LYMP2-021 (AID 974);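 also: potency is read from the fitted curve at half-maximal effect; compound exposure lasts 24 hours at 37 °C; nearly all actives have a fitted effect of over 55% in size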", "how_it_was_run": "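In qHTS format, compounds are tested against 2500 lymphoblastoid cells per well for 24 h; viable cell number is inferred from ATP-driven luciferase light, and Hill-equation fitting yields AC50 values.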"}, "[18]": {"assay": "Cell Viability - LYMP2-023 (AID 975)", "how_it_was_run": "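In this qHTS, ATP-based luciferase luminescence (CellTiter-Glo) is quantified in human lymphoblastoid cells after 24 hr compound treatment at 37 C; tetraoctylammonium bromide serves as positive control. Concentration-response curves are Hill-fitted to give AC50.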"}, "[19]": {"assay": "Cell Viability - LYMP2-025 (AID 976); also: potency is read from the fitted curve at half-maximal effect", "details": "LYMP2-025 lymphoblastoid cell viability; activity change, negative = cytotoxicity: at 92.2 µM (top of the series)", "how_it_was_run": "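Luminescent ATP readout after 24 hr treatment of a human lymphoblastoid line (LYMP2-025, 2500 cells/well, 37 C). Reagent developed 30 min at room temperature; AC50 fitted with the Hill equation.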"}, "[20]": {"assay": "Cell Viability - LYMP2-007 (AID 979); also: potency is read from the fitted curve at half-maximal effect; nearly all actives have a fitted effect of over 60% in size", "how_it_was_run": "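Measured via luciferase-based ATP quantitation: lymphoblastoid cells, 24 hr compound exposure at 37 C, AC50 from Hill fits.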"}, "[21]": {"assay": "Cell Viability - LYMP2-008 (AID 980); also: potency is read from the fitted curve at half-maximal effect; nearly all actives have a fitted effect of over 60% in size", "how_it_was_run": "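Measured: ATP-dependent luminescence, proportional to viable cell number, in human lymphoblastoid cells treated 24 hr with compound in complete culture medium. Values are AC50s from Hill-equation modelling of qHTS titrations.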"}, "[22]": {"assay": "Cell Viability - LYMP2-012 (AID 982)"}, "[23]": {"assay": "Cell Viability - LYMP2-014 (AID 983); also: potency is read from the fitted curve at half-maximal effect; nearly all actives have a fitted effect of over 50% in size", "details": "LYMP2-014 lymphoblastoid cells, viability qHTS; activity change, negative = cytotoxicity: at 92.2 µM (top of the series)", "how_it_was_run": "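Quantitative HTS in lymphoblastoid cells: 24 hr compound exposure, then CellTiter-Glo ATP luminescence. Positive control was tetraoctylammonium bromide, 6.4pM to 92 uM.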"}, "[24]": {"assay": "Cell Viability - LYMP2-016 (AID 984)", "details": "LYMP2-016 lymphoblastoid cell viability, qHTS; activity change, negative = cytotoxicity: at 92.2 µM (top of the series)", "how_it_was_run": "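Human lymphoblastoid cells (LYMP2-016), 2500/well in complete medium, preincubated 5 hr at 37 C, then compound-treated 24 hr at 37 C. Intracellular ATP read by CellTiter-Glo luminescence after 30 min at room temperature; AC50 from Hill-equation concentration-response fits.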"}}, "note": "The shares of active, inactive and inconclusive entries below differ from those in the screen. For part of these data: No potency is given beside an inconclusive call; the fits are too rough. Calls of active or inactive are those of the source. Unless noted, calls follow the shape of the dose curve; as a rule, active = well fitted curve in the direction sought with a large enough effect; inconclusive = small, poorly fitted or top-dose-only effect, or another doubt; inactive = no such curve, though single readings can be large; an effect the other way counts as inactive or inconclusive. Tags tell the direction and shape of the fitted curve."}
{"smiles": "CCOCN(C(=O)CCl)c1c(C)cccc1CC", "values": [{"measurement": "Potency", "setting": "[1]", "result": "inconclusive [partial curve]"}, {"measurement": "Potency", "setting": "[2]", "result": "inconclusive [single point]"}, {"measurement": "Potency", "setting": "[3]", "result": "inconclusive [single point]"}, {"measurement": "Potency", "setting": "[4]", "result": "inconclusive [single point]"}, {"measurement": "Potency", "setting": "[5]", "result": "inconclusive [falling, single point]"}, {"measurement": "caspase-3 activation", "setting": "[6]", "result": "inconclusive: 65.7%"}, {"measurement": "Potency", "setting": "[7]", "result": "inconclusive [cytotoxic, partial curve, poor fit]"}, {"measurement": "Potency", "setting": "[8]", "result": "inconclusive [cytotoxic, partial curve, poor fit]"}, {"measurement": "Potency", "setting": "[9]", "result": "inconclusive [cytotoxic, partial curve]"}, {"measurement": "Potency", "setting": "[10]", "result": "inconclusive [cytotoxic, single point]"}, {"measurement": "Potency", "setting": "[11]", "result": "inconclusive [cytotoxic, partial curve, poor fit]"}, {"measurement": "Potency", "setting": "[12]", "result": "inconclusive [cytotoxic, partial curve, poor fit]"}, {"measurement": "Potency", "setting": "[13]", "result": "inconclusive [cytotoxic, partial curve, poor fit]"}, {"measurement": "Potency", "setting": "[14]", "result": "active: 50.1 µM"}, {"measurement": "Potency", "setting": "[15]", "result": "inconclusive [cytotoxic, partial curve, poor fit]"}, {"measurement": "Potency", "setting": "[16]", "result": "inconclusive [cytotoxic, partial curve, poor fit]"}, {"measurement": "Potency", "setting": "[17]", "result": "active: 50.1 µM"}, {"measurement": "Potency", "setting": "[18]", "result": "inconclusive [cytotoxic, single point]"}, {"measurement": "Potency", "setting": "[19]", "result": "inconclusive [cytotoxic, partial curve, poor fit]"}, {"measurement": "Potency", "setting": "[20]", "result": "active: 50.1 µM"}, {"measurement": "Potency", "setting": "[21]", "result": "inconclusive [cytotoxic, partial curve, poor fit]"}, {"measurement": "Potency", "setting": "[22]", "result": "inconclusive [cytotoxic, partial curve, poor fit]"}, {"measurement": "Potency", "setting": "[23]", "result": "inconclusive [cytotoxic, single point]"}, {"measurement": "Potency", "setting": "[24]", "result": "inconclusive [cytotoxic, partial curve, poor fit]"}]}
